Test results from the RNAGym collection of RNA variant scans (doi:10.1073/pnas.2313332121).
Variants at the floor of the assay are shown more often than the library holds them.

B1: TPR 5TU (parent)
chain: GGAUCUUCUCGAUCUAACAAAAAAGACAAAUCUGCCACAAAGCUUGAGAGCAUCUUCGGAUGCAGAGGCGGCAGCCUUCGGUGGCGCGAUAGCGCCAACGUUCUCAACUAUGACACGCAAAACGCGUGCUCCGUUGAAUGGAGUUUAUCAUG

Variants of: B1
Experiment: polymerase ribozyme fitness, log enrichment relative to wild type (log ratio); higher = more active; in vitro selection for triplet polymerase activity
In short: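 Streptavidin-bead capture of gel-excised extended constructs, followed by RT-PCR, closed a single triplicate in vitro selection round. That round began by annealing PCR-built, transcribed mutant libraries of each subunit of a heterodimeric triplet polymerase ribozyme with a biotinylated primer, the partner subunit and triplets, then incubating them frozen at −7 °C. After Illumina sequencing of inputs and outputs, genotypes needed ≥10 input reads and ≥1 read per output. Fitness is the base-2 logarithm of genotype enrichment over wild-type enrichment, using inverse-variance-weighted replicate averages.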

Variant	polymerase ribozyme fitness (log ratio)
G34C U55A A91U G94U	≤ -4.2
U31C A39G G42C G92A G141U	≤ -4.2
C32G C35A G48C A73U	≤ -4.2
C32U C36U U45A A60U G88A G126A	≤ -4.2
U31A U144A	0.137
C32G G59C G71C C85A G88A U151A	≤ -4.2
G34C A49C U55A U56A A121G	≤ -4.2
U33C A47C G59C C76A G92U U104C C116A	≤ -4.2
C32G C54U C79A C129U U148C A150C	≤ -4.2
U31G A37C U82A G84C C87A C99G	≤ -4.2
G34U G83C U145G	≤ -4.2
U33G G80U G84A A142C U148C U151G	≤ -4.2
G34A C35U A107G C118A U139A G140U	≤ -4.2
G34C C76A C95U A142C	≤ -4.2
U31C A37U U82G C85U G94C U148A U151C	≤ -4.2
C32U C35G A89G C105G A110U	≤ -4.2
U31C C85U	0.604
U33A G92A U102G A106U G133U U139C	≤ -4.2
U31G A37G G58U A64U C69U C99U G117A	≤ -4.2
U31A C85A	-0.724
C32G U90A	≤ -4.2
U31C C69U G86U C96U A142G	-2.99
G34C A66G G86U A107C G141U	≤ -4.2
U33G A52U G59C A91G	≤ -4.2

Variant	polymerase ribozyme fitness (log ratio)
U33A G59U U61A	≤ -4.2
G34U G58U G74U G81A U102A U104C	≤ -4.2
U31G A37C U44G G48U C69U G71A G94A A113G C114U U151C	≤ -4.2
C32A G59A C69U C75U U111G	≤ -4.2
U33G G42U G81C C95U U139A G140C	≤ -4.2
U31C C36A C96U A150G	≤ -4.2
U33G U53A G84U G92A G140U	≤ -4.2
C32U U55G U61C G84U G100C	≤ -4.2
C32G G70U U82G G94A A110U G136A	≤ -4.2
U31A C32A G84C A107U G133U G141A	≤ -4.2
C32G U44A G65A C85G	≤ -4.2
C32A G58C A64U C85G	≤ -4.2
U33A C36G G59A A91G G94U C129G	≤ -4.2
G34U A66C G141U A147C	≤ -4.2
U33A U148A	≤ -4.2
G34U C95G A115G C116U G140C U151A	-4.19
G34A U56A G74A C96G A98G C105G U139C	≤ -4.2
C32A C87A C93U	≤ -4.2
G34A A106U A142U	≤ -4.2
C32U G62A C76G G84U C116U G140A C149U	≤ -4.2
U33G G74U C93U A107U A120C	≤ -4.2
U33G G88A A119U G126U A138C	≤ -4.2
U33A A60C U104A C123G	≤ -4.2
U33C C35G	≤ -4.2

Variant	polymerase ribozyme fitness (log ratio)
U31C C35A C93U G100C U127A C129G C149U	≤ -4.2
U33G A52G U55A C79G G80U G88C A110U	≤ -4.2
U31C C76U G84U A142G G143U U146G	≤ -4.2
C32G G62C C63A G71C U82A C95G C114U C116A G136C	≤ -4.2
U31G G48C A49U C51U C69U G84C U127C	≤ -4.2
C32G G34A U55A C96G C125U A138G	≤ -4.2
G34U U77G C87A A113C	≤ -4.2
U33C C43U A52G C75G A91U C131G	≤ -4.2
U33C A49U G70A G80C	≤ -4.2
U31G U61G C93A C123G G126U U139C U148C	≤ -4.2
U31A C35U A49C U53A U78G C93A G140C A150U	≤ -4.2
U31A C32U A39C C85A C114U A150C	≤ -4.2
G34U C96G	-2.91
G34U A41G A47C C116U	≤ -4.2
U33A C95A G126C A138C U145A	≤ -4.2
C32A G88U C93A C149A	≤ -4.2
U31G G65U	≤ -4.2
U33C C75G G86A C87A C149G	≤ -4.2
U31A U44G A49U G80C G84A G92U G117U A120U G126A U135A	≤ -4.2
C32G A40C C54G U77C A138G	≤ -4.2
C32A C75G G92A A150U	≤ -4.2
U31G A47C U56A C76U U90G C95A U101G	≤ -4.2
U31G U56A G80C C87G C99G	≤ -4.2
G34A U55G C93U U109A A138C	≤ -4.2

Variant	polymerase ribozyme fitness (log ratio)
U31C A41G A49G U77C C87A C108U G126U G133U	≤ -4.2
C32G U55G C72A G83A G94U G126U U146A	≤ -4.2
U31G C51A U90G A97U	≤ -4.2
U33C C96U U139A	≤ -4.2
U33G G83A G88U G136C	≤ -4.2
U31G A49C C57G C75G C79U C85G G88C U111G	≤ -4.2
C32U G59A G74U G83C G86A C87U	≤ -4.2
C32G U56A C87A G92A C96U C132A G141U A150U	≤ -4.2
C32U A39C A60C A66U G71A U134A	≤ -4.2
C32A G140U	≤ -4.2
U33G U55A G86U A97U G126C C132G	≤ -4.2
U33G C38U C43A C85A C93A A110U	≤ -4.2
C32G G48U G68A U134A U145C	≤ -4.2
C32A A49C G83U A91G C114U A121G	≤ -4.2
U33G U53A C54G A66G C76G C93U A121U	≤ -4.2
C32G C57U C95U A142C U144G	≤ -4.2
C32U G81U A107U C125U	≤ -4.2
G34U C76U A119U	-3.19
C32U G46A A60U G83C C96A G141A	≤ -4.2
U31C A41G A49G A107U A115C G126U G133U	≤ -4.2
C32G G59A A91C C96U A115C G141U	≤ -4.2
C32A A47G C54A C93A U135A	≤ -4.2
U31C C103G C132A	≤ -4.2
C32G C36U U61G C72G C87G C95U A97U C99A G140A	≤ -4.2

Variant	polymerase ribozyme fitness (log ratio)
C32G C79A C93G A98G A106C U109C	≤ -4.2
C32G C149G	≤ -4.2
U33A U102C A107U C125A	≤ -4.2
U31C A47U G88A C108A	≤ -4.2
U33C C35G C36G G50C G94U	≤ -4.2
U31G G65A C96U G112C A115G U144A	≤ -4.2
U33G G50A C63G G94A C95G C116U	≤ -4.2
U33A C38A U55G C95U C118G	≤ -4.2
G34U C51A G84C	≤ -4.2
U33G U61A	-3.72
U31G G50A C87A U135A	≤ -4.2
C32U A40C U78A C79A C87G	≤ -4.2
C32A G59C C79G	≤ -4.2
C32G U61A A66C G74A C76U A115G	≤ -4.2
U31C A40U U44A A47G C63A	≤ -4.2
C32G A52C U61A G62C C63A C75U C93U	-4.14
U33A U61A	-3.64
U31C U45G G86U A150C	≤ -4.2
U33G C35U C51U C69A G71A C103G	≤ -4.2
C32U C96G A142U	-3.35
U33C G68A A73C G81A U148A	≤ -4.2
C32G C57G A66U C87U U109G	≤ -4.2
C32G C116U A119U A142G U146A	≤ -4.2
C32U U61C	-3.52

Variant	polymerase ribozyme fitness (log ratio)
U31G G48C C54G U61A G86A G92A A115U G117U C118A	≤ -4.2
C32G G50C C79A G86U G143U	≤ -4.2
C32G U53A C57U C76G C108G A138C	≤ -4.2
U33G A73G	-0.513
U33C C69U A91G C125A U127A G136U	≤ -4.2
C32U A147C	-2.55
C32G G88A	≤ -4.2
C32G A47C G74C C116U C132A A138U	≤ -4.2
C32U A66U G68C G94U C149A	≤ -4.2
U31C A40G A41C G59A C93U C99A G100U U101G G124C C125U G141C U146A	≤ -4.2
U31G C123G A142G	-1.12
U33A U56A U90A A122C U151G	≤ -4.2
C32G C35A A73U C85A G88C A106U G143A	≤ -4.2
U33G G92A U104A C132U	≤ -4.2
C32G G65A G71C U78A U134C	≤ -4.2
U33A G50C A52C C87A C96U C105U U127G U144A	≤ -4.2
U31G U55G G83U G100A U135G G136A U146A	≤ -4.2
U33G A49C G62C	≤ -4.2
C32G A52U C57A U144G U146C	≤ -4.2
U31C A121C U134A	-1.76
C32G A49C C118U	≤ -4.2
U33A A41G A47C C96A G140A	≤ -4.2
C32G A49C U56A C85A A98G A113U U145A	≤ -4.2
C32U A39C C72G G84U U102A C123U	≤ -4.2

Variant	polymerase ribozyme fitness (log ratio)
C32G A47C C96U U101G C108G	≤ -4.2
C32U U61A G94C C105U A107U A110U	≤ -4.2
U31G U33G G62C C93U	≤ -4.2
U31G C54U G59C C103G U130C	≤ -4.2
U31A C36U C43A C63A A91U U104G	≤ -4.2
U33G C35A A91U C108G U144A	≤ -4.2
U31G C99U C116U A137G	-1.84
C32U U90C C93G C108G U144C	≤ -4.2
U33G C54G C93A U104G C116U G141U	≤ -4.2
G34A C38A A52C C69A G86U A98G A119U G128A G143C U151C	≤ -4.2
C35A A41G U55A C76G U90C	≤ -4.2
G34A G74C	≤ -4.2
C32U C93A	-4.11
U31G G50U U61A C85A C103G G152U	≤ -4.2
G34A U56A G92C	-1.65
U33G U55A C93U A107U G112A C131U	≤ -4.2
U31G U44G G62A C63U G81A	≤ -4.2
C32A C69U C85G C87U	≤ -4.2
U31G C95G C103A C105G	≤ -4.2
U31G U44A G84C C85A C125U	≤ -4.2
U33C G34U G42A C43U U55A C76A C93U G143A U144A	≤ -4.2
U31A U56A U127C	-1.37
U31C G50A C96G	-0.777
